Where “and” joins values, the source holds several entries; their conditions need not be identical. Identical values can stand only once.
Assay: Pharmacokinetic study of anti-CD11/18 constructs in mice after single intravenous administration (serum concentration by MAC-1 capture ELISA)
Format: in vivo, male Crl:CD-1 (ICR)BR VAF/Plus mice
Protocol: Pharmacokinetic Study of Anti-CD11/18 Constructs in Mice after Intravenous Administration
The objective of this single-dose pharmacokinetic study of five humanized huH52 anti-CD18 antibody fragments (constructs) in mice was to determine if non-specific clearance of antibody fragments is affected by alterations to amino acids in the constant domain. Serum samples were collected from male CD1 mice over a 24-hour period and human anti-CD18 serum concentrations were measured by ELISA.
The anti-CD18 antibody fragments investigated were derived from E. coli-produced recombinant humanized monoclonal Fab antibody fragments as described above. The Fab fragment and the construct in which two Fab' subunits were joined together by two disulfide bonds were investigated. Lastly, three new versions of the original Fab were constructed by altering amino acids in the constant domain. See the Study Design table below for further description of the constructs.
The construct antigen-binding sites are directed against the CD18 subunit of the CD11/CD18 glycoprotein complex on the surface of leukocytes. These antibody fragments are chimpanzee and human-specific; therefore, the serum pharmacokinetic information obtained in mice provides a description of the non-specific clearance of the fragments.
Because linear pharmacokinetics were expected in this study, a single-dose level of 2 mg/kg was chosen rather than multiple-dose levels.
The pharmacokinetics of the five antibody constructs were studied in male Crl:CD-1® (ICR)BR VAF/Plus® mice (approximately 20-30 g). Five groups, each consisting of twenty mice, received an intravenous bolus dose of 2 mg/kg via the tail vein. Blood samples were collected at 5 and 30 minutes, 1, 2, 4, 8, 12, 16, 20, and 24 hours post-dose. Serum was harvested and concentrations of the antibody fragments were determined in a MAC-1 capture ELISA as follows:
96-Well microtiter plates were coated overnight with murine anti-CD18 monoclonal antibody. After overnight incubation at 4° C., plates were washed three times with ELISA wash buffer and blocked for 1 hour with ELISA diluent. ELISA wash buffer is phosphate-buffered saline (PBS)/0.05% Polysorbate™ 20. This buffer is prepared per liter as 50 mL 20×PBS/1.0% Polysorbate™ 20 (a mixture obtained by dissolving 160 g NaCl, 4.0 g KCl, 22.6 g Na2 HPO4, and 40 g KH2 PO4 in glass-distilled or deionized water, adding 10.0 mL Polysorbate™ 20 [Sigma™ P-1379 or equivalent], qs to 1000 mL, and sterile filtering using a 0.22 μm or smaller filter), and qs to 1.0 L of distilled or deionized water, stored at ambient temperature. The expiration period is 2 weeks from the date of preparation.
The ELISA diluent was PBS/0.5% BSA/0.05% Polysorbate™ 20/0.01% Thimerosal™/1 mM CaCl2 /1 mM MgCl2. This diluent was prepared per liter as 5.0 g bovine serum albumin (Armour™ N0068 or equivalent), 50 mL 20×PBS/1.0% Polysorbate™ 20/0.2% Thimerosal™ (a mixture obtained by dissolving 160 g NaCl, 4.0 g KCl, 22.6 g Na2 HPO4, and 4.0 g KH2 PO4 in glass-distilled or deionized water, and adding 10.0 mL Polysorbate™ 20 [Sigma P-1379 or equivalent] and 2.0 g Thimerosal™ [Sigma T-5125 or equivalent], qs to 1000 mL), 0.1% (v/v) 1M CaCl2 (Genentech™ A3165), 0.1% (v/v) 1M MgCl2 (Genentech™ A3167), qs to 1.0 L of distilled or deionized water, and stored at 2°-8° C., with the expiration period 1 month from the date of preparation.
After blocking, the plates were washed again three times with ELISA wash buffer. Soluble MAC1 (CD11b/CD18 as described by Berman et al., J. Cell. Biochem., 52: 183-195 [1993]) was then captured out of a concentrate of media, conditioned by CHO cells expressing the truncated CD11b/CD18 heterodimer. After a 2-hour incubation period, the plates were washed six times with ELISA wash buffer and 100 μL of the mouse serum sample being tested or the standard containing the homologous recombinant human anti-CD18 Fab were added. […]

B1: Fab v1B: Fab v1b incorporated oligos V1A and V1B; version of the original Fab constructed by altering amino acids in the constant domain (protein)
chain: ASTKGPSVFPLAPSPKNSSMISNTPALGCLVKDYFPEPVTVSWNSGALTSGVHTFPAVLQSSGLYSLSSVVTVPHQSLGTQTYICNVNHKPSNTKVDKRV
For B1, the “Half life (in words)” value (compared with the other Fab variants) was “longer half life”, the “Serum concentration at 0.083 hours” value (mice, i.v. 2 mg/kg, 0.083 hours, one sample per mouse, 2 mg/kg) was 28160 ng/mL and 33630 ng/mL and the “Serum concentration at 0.5 hours” value (mice, i.v. 2 mg/kg, 0.5 hours, one sample per mouse, 2 mg/kg) was 10610 ng/mL and 12830 ng/mL. For the same molecule, the “Serum concentration at 1 hour” value (mice, i.v. 2 mg/kg, 1 hour, one sample per mouse, 2 mg/kg) was 7160 ng/mL and 6890 ng/mL, the “Serum concentration at 2 hours” value (mice, i.v. 2 mg/kg, 2 hours, one sample per mouse, 2 mg/kg) was 3710 ng/mL and 4900 ng/mL and the “Serum concentration at 4 hours” value (mice, i.v. 2 mg/kg, 4 hours, one sample per mouse, 2 mg/kg) was 910 ng/mL and 670 ng/mL.

Source: patent US5747035A, “Polypeptides with increased half-life for use in treating disorders involving the LFA-1 receptor” (Genentech, Inc., priority 1995, dated 1998)
